Assay [1] deals with T1, SCRM-cYFP (Arabidopsis thaliana) (UniProt Q9LSE2).
T1 sequence: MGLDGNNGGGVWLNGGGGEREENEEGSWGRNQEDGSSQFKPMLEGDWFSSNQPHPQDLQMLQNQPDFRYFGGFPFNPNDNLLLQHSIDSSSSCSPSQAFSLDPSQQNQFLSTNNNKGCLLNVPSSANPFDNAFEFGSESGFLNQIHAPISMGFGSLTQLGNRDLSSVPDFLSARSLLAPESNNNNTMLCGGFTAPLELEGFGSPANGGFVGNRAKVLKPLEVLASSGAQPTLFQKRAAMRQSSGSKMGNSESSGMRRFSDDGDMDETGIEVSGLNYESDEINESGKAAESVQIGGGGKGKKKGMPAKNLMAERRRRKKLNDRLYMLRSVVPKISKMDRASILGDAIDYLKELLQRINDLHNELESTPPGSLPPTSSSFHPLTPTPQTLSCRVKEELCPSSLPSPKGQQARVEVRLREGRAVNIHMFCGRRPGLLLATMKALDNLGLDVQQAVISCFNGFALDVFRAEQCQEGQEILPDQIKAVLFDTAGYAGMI
In words: split reporter; BiFC with nYFP and cYFP fusions transiently co-expressed in N. benthamiana leaf epidermal cells; confocal microscopy 3-4 days after infiltration.

Amino acid sequences for entries named in this document (tags omitted).
UniProt Q39026: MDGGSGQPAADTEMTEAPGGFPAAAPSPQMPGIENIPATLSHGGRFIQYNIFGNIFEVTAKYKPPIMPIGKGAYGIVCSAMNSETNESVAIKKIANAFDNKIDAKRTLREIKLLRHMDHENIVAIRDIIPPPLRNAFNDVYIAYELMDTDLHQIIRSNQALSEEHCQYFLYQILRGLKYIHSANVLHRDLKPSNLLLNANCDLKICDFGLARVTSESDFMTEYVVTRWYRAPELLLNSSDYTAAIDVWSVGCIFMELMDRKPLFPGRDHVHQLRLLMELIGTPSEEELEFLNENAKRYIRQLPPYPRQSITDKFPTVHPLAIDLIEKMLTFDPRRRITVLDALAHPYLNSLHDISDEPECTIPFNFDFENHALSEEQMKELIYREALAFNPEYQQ

In assay [2] the target is T2, SPCH-cYFP (Arabidopsis thaliana) (UniProt Q700C7).
T2 sequence: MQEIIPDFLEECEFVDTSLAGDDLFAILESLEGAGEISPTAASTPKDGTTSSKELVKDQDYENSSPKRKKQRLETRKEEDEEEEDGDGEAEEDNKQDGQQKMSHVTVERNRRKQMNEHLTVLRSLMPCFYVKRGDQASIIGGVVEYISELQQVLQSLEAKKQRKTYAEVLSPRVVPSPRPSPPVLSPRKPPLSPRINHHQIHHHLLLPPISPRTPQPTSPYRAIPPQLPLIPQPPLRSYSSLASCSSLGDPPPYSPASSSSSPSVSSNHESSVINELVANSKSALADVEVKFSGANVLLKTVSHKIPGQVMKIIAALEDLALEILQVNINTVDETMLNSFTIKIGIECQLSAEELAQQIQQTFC
The assay is described as above.

The target of assay [3] is cYFP-tagged MPK6 (Arabidopsis thaliana) (UniProt Q39026). The description is as above.
Assay [4] addresses MPK6-YFP (Arabidopsis thaliana) (UniProt Q39026). In words: co-IP; YFP or MPK6-YFP co-expressed with BSL2-FLAG or BSU1-FLAG in N. benthamiana leaves; total protein extract on GFP-Trap agarose, 4 °C, 3 h; washed three times; detected by anti-FLAG.

These are yes or no findings as the source states them, for the method shown. Binding seen in cells or lysates may run through a third protein. Some entries that bind do so weakly or less than the wild type. Where a sequence is shown, tags or fusion partners need not be part of it.

B1: nYFP-tagged BSL2 (enzyme, UniProt Q9SJF0 1-1018)
chain: MDEDSSMVADNDQDREFQSLDGGQSPSPMERETPQQMNDQSPPPEGGSVPTPPPSDPNPATSQQQAAAVVGQEQQPALVVGPRCAPTYSVVDAMMDKKEDGPGPRCGHTLTAVPAVGDEGTPGYIGPRLVLFGGATALEGNSGGTGTPTSAGSAGIRLAGATADVHCYDVLSNKWTRLTPFGEPPTPRAAHVATAVGTMVVIQGGIGPAGLSAEDLHVLDLTQQRPRWHRVVVQGPGPGPRYGHVMALVGQRYLMAIGGNDGKRPLADVWALDTAAKPYEWRKLEPEGEGPPPCMYATASARSDGLLLLCGGRDANSVPLASAYGLAKHRDGRWEWAIAPGVSPSSRYQHAAVFVNARLHVSGGALGGGRMVEDSSSVAVLDTAAGVWCDTKSVVTSPRTGRYSADAAGGDASVELTRRCRHAAAAVGDLIFIYGGLRGGVLLDDLLVAEDLAAAETTYAASHAAAAAATNSPPGRLPGRYGFSDERNRELSESAADGAVVLGSPVAPPVNGDMHTDISPENALLPGTRRTNKGVEYLVEASAAEAEAISATLAAAKARQVNGEVELPDRDCGAEATPSGKPTFSLIKPDSMGSMSVTPAGIRLHHRAVVVAAETGGALGGMVRQLSIDQFENEGRRVSYGTPESATAARKLLDRQMSINSVPKKVIAHLLKPRGWKPPVRRQFFLDCNEIADLCDSAERIFASEPTVLQLKAPIKIFGDLHGQFGDLMRLFDEYGSPSTAGDISYIDYLFLGDYVDRGQHSLETISLLLALKVEYQHNVHLIRGNHEAADINALFGFRIECIERMGERDGIWVWHRINRLFNWLPLAASIEKKIICMHGGIGRSINHVEQIENIQRPITMEAGSIVLMDLLWSDPTENDSVEGLRPNARGPGLVTFGPDRVMEFCNNNDLQLIVRAHECVMDGFERFAQGHLITLFSATNYCGTANNAGAILVLGRDLVVVPKLIHPLPPALSSPETSPERHIEDTWMQELNANRPATPTRGRPQNSNDRGGSLAWM
For the molecule B1, the binding entry was “no binding” in assay [1], “no binding” in assay [2] and “binds” in assay [3].

B2: BSL2-FLAG (enzyme, UniProt Q9SJF0 1-1018)
chain: B1 chain
Take B2: the binding result in assay [4] is “binds”.
